The text below walks through data of article PMC11050213.

Assay [1] addresses T1, Arabidopsis ELP4 (Arabidopsis thaliana) (UniProt Q9C778).
T1 sequence: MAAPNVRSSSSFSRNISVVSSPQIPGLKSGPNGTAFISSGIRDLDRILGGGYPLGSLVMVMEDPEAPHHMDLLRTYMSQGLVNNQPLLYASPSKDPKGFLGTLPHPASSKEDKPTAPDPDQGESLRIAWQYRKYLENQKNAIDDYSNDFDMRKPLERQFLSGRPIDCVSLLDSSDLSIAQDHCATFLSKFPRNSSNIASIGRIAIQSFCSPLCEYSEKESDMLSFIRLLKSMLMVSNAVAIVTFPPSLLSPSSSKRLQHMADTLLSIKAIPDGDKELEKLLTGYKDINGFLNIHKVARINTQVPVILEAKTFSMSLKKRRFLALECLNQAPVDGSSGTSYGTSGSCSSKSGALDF
Description: two-hybrid; GAL4-based ProQuest system, yeast MaV203; bait in pDEST32 (BD), prey in pDEST22 (AD); growth on SD/-Leu/-Trp/-His with 10 mM 3-AT.

Assay [2] has as its target T2, Arabidopsis ELP6 (Arabidopsis thaliana) (UniProt Q8L9Y2).
T2 sequence: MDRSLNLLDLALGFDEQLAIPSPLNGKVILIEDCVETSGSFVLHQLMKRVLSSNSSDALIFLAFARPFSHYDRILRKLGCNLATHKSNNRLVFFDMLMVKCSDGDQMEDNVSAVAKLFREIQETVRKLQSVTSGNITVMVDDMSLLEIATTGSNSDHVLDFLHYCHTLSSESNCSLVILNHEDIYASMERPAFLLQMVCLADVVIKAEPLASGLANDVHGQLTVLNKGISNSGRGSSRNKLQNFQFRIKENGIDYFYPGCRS
The assay is described as above.

Assay [3] addresses T1, Arabidopsis ELP4 (Arabidopsis thaliana). Description: two-hybrid; β-galactosidase (X-gal) assay of co-transformed yeast grown on SD/-Leu-Trp-His+3-AT with 500 μg/mL X-gal, 30 °C.
The target in assay [4] is T2, Arabidopsis ELP6 (Arabidopsis thaliana). The assay is described as above.

These are yes or no findings as the source states them, for the method shown. Some results given as binding are weak or reduced against the parent protein; the word gives no strength.

B1: Deformed Roots and Leaves 1 (DRL1) (protein, UniProt Q9LMH0 1-302)
chain: MALVVICGQPCSGKSIAAVTLAETLKESETKQSVRIIDEASFHLDRNQNYANMPAEKNLRGKLRSDVDRSVSTGEIVIVDSLNSIKGYRYELWCIARAAGIRYCVVYCDVDEAHCRQWNKERSDRGEDGYDDGIFEDLVRRFEKPERRNRWDSPLFELYPSREVIDKSSPVILEAVTYLTKTVDSKTQDVRILQPSIATQAARFSEANSLYELDRATQEIINAIVEQQSLGAAISRVTLGNELPPIEICRPIGLPELRRLRRTFVKLMGQSSLSGPPLPTDADSAKRRFVDYLNREFGGNNA
B1: the binding result in assay [1] and in assay [2] was “no binding” each time.

B2: Arabidopsis ELP6 (protein, UniProt Q8L9Y2 1-262)
chain: T2 sequence
Turning to B2, the binding result in assay [3] is listed as “binds”; in assay [1], “binds”; in assay [2] it was “no binding”.

B3: Arabidopsis ELP3 (protein, UniProt Q93ZR1 1-565)
chain: MATAVVMNGELKKQPRPGKGGYQGRGLTEEEARVRAISEIVSTMIERSHRNENVDLNAIKTAACRKYGLARAPKLVEMIAALPDSERETLLPKLRAKPVRTASGIAVVAVMSKPHRCPHIATTGNICVYCPGGPDSDFEYSTQSYTGYEPTSMRAIRARYNPYVQARSRIDQLKRLGHSVDKVEFILMGGTFMSLPAEYRDFFIRNLHDALSGHTSANVEEAVAYSEHSATKCIGMTIETRPDYCLGPHLRQMLIYGCTRLEIGVQSTYEDVARDTNRGHTVAAVADCFCLAKDAGFKVVAHMMPDLPNVGVERDMESFKEFFESPSFRADGLKIYPTLVIRGTGLYELWKTGRYRNYPPEQLVDIVARILSMVPPWTRVYRVQRDIPMPLVTSGVEKGNLRELALARMDDLGLKCRDVRTREAGIQDIHHKIKPEQVELVRRDYTANEGWETFLSYEDTRQDILVGLLRLRKCGKNVTCPELMGKCSVVRELHVYGTAVPVHGRDADKLQHQGYGTLLMEEAERIARREHRSNKIGVISGVGTRHYYRKLGYELEGPYMVKHLL
On to B3, for which the binding result in assay [1] and in assay [2] was “no binding” throughout.

B4: Arabidopsis ELP5 (protein, UniProt F4IQJ2 1-374)
chain: MAESIFRKLRDGGEEGELAPALTIEETVASPFGLDVSGYLLTNLSSSILAGKSSSQGLVLITFSRSPSFYLQLLKQKGIVVSSSSKWIRILDCYTDPLGWIDQSSTSFSEGSSLIKLHKCVSDLKKLFSSIIEAGRELVGTGKTRFCVAIDSVNELLRHSAMPLVSGLLTDLRSHAQISSVFWSLNTDLHQEKVTNALEYISTMKANLEPLCPSSDGQRNALENLFSVHQDFGKGRFHVRFKLRKGRVRVMSEEYHVDQSGINFSPISSVDTVIAATKSLLPKVQFNLQLSEKERVEKEKVVLPFEHQDDGKSNEIYDGRRSLVDGKIETTPLSSMELQTDVVSSGKGGEIIYFRDSDDEHPDSDEDPDDDLDI
Take B4: the binding entry in assay [4] is reported as “binds”; in assay [1] it was “no binding”; in assay [2] it was “binds”.
